# In the supplement of paper PMC3334620:
# Over roughly 33,000 sequences, “E-score (-0.5 to 0.5)” has its median near -0.04; the highest 2% begin near 0.36. Some of the results follow.
# Target: T1, Hmlalpha2 (UniProt P0CY09)
# T1 sequence: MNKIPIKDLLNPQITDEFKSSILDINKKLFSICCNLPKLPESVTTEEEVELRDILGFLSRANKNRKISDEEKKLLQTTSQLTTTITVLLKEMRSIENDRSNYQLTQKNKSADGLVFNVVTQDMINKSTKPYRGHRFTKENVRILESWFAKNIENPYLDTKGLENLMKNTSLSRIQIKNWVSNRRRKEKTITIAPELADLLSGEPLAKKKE
# Experiment: PBM E-score (8-mer binding enrichment) (E-score (-0.5 to 0.5)); higher = stronger / more preferred TF binding; most listed sequences are background and not binding sites
# Details: protein concentration: 200 nM; construct: GST-full length
# Outline: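 Masliner-normalised scans of fluorescent anti-GST signal were the basis for scoring. That signal came from GST-tagged yeast transcription factors applied at about 100-200 nM to double-stranded universal all-10-mer Agilent arrays on fresh or once-stripped slides. Each ungapped eight-base word, pooled with its reverse complement, received an E-score from the Universal PBM Analysis Suite.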
row,Sequence,PBM E-score
1,TAAACGAA,0.165
2,ACGCGAAT,0.272
3,GGACTAGA,-0.227
4,CACGATGG,-0.0802
5,AGTCGGTG,-0.213
6,GCACCTAA,-0.0209
7,AATGCGAG,0.105
8,TATTAACA,0.428
9,AGAAGTGG,-0.351
10,AACAATCT,0.179
11,CGCGTCGC,0.0806
12,ACCATTAT,-0.111
13,AAGGTAAA,0.215
14,TGACATAA,0.319
15,AGCACGAC,-0.036
16,AATTTTGT,0.101
17,ATCCTGGC,-0.245
18,AATTCAGC,-0.11
19,CACAGTCC,-0.0662
20,AGCGGCTG,-0.16
21,GCACTAAC,-0.0951
22,GAAAGGGA,-0.156
23,GAACTCAA,-0.0818
24,CTGTGCTC,0.0747
25,AGCGGTTG,-0.0521

row,Sequence,PBM E-score
1,ACCAACGG,0.106
2,CGGCAGAC,-0.268
3,ATGGTGCC,-0.225
4,AGCAGGGG,-0.309
5,AGTATGCG,0.0952
6,CCCCGCCA,-0.196
7,AGGCGTCG,-0.0335
8,CAGTTATG,0.0317
9,AGACTTAT,-0.00401
10,AAATAATA,0.168
11,AACGTGCT,0.138
12,GCACCCGA,-0.275
13,GGACTTTA,-0.0551
14,TGTGCTAA,0.217
15,AACTCTCG,0.00226
16,AACCTTAG,-0.121
17,GTGACAAA,-0.0398
18,GGACCCGA,-0.33
19,TAAATACA,0.434
20,TCGTGAAA,-0.0247
21,CGCGCAGA,-0.00778
22,ATGGTGGG,-0.308
23,TAATGAAA,0.229
24,TACTTACA,0.379
25,CAGGCGAG,-0.208

row,Sequence,PBM E-score
1,AGGACATC,-0.0672
2,AACTCCTC,-0.176
3,GCGGCATA,0.0326
4,GTTCAAGA,0.0155
5,ATCGGAAA,-0.0714
6,GCCTACCC,-0.204
7,CCGCCGTC,-0.207
8,GCCCTACC,-0.203
9,ATGGAGCA,0.0185
10,TGACAGCA,0.181
11,ACGACGTG,0.287
12,CACACTAG,0.00781
13,ACGAATGA,0.0688
14,GGCTACAA,0.00252
15,CGACTTGA,-0.0293
16,ACCAGTGA,-0.0562
17,GAATTGAA,0.0239
18,CTAGCCTC,-0.232
19,AATCGGAC,-0.131
20,CCACTGTA,-0.0906
21,GGCGTGAA,-0.0431
22,ACTGAGCG,-0.168
23,GCGTATCA,0.0411
24,AAGTCCAC,-0.168
25,CAGCGGCA,-0.151

row,Sequence,PBM E-score
1,ATTTGCGA,0.0385
2,CCTCCACG,-0.114
3,AAGGGGAG,-0.287
4,CGGGTAGA,-0.0547
5,CATCACCA,-0.0675
6,CTGCAGTA,-0.0972
7,ACCTTTTC,-0.168
8,TCTAAAAA,0.0747
9,TGAAAGAA,0.129
10,CCCGCCGC,-0.279
11,GTTTGACA,0.303
12,ACGCACGT,0.192
13,ACGATAGA,-0.0187
14,CCATGTTC,0.275
15,AGATCCGG,-0.187
16,GACGCGAA,-0.0793
17,AAAAGAAT,0.103
18,TACGACAA,0.119
19,CGCGTACC,0.144
20,ACAGGTAT,0.125
21,AGAAGATG,-0.118
22,ACCACTCC,-0.208
23,CTACAGTC,0.0127
24,ATCGCGGA,-0.302
25,AGCCTTTA,0.0848

row,Sequence,PBM E-score
1,GTGCGAAC,-0.147
2,ACATAACG,0.368
3,CCTTTATA,-0.0253
4,CCCCGTGC,-0.158
5,ATTGCAGG,-0.152
6,ATTGAAAT,0.116
7,AGATGGTG,-0.0243
8,TTTACAAA,0.412
9,CCGGCGCG,-0.162
10,ATCATCAG,-0.11
11,AGTATCAA,0.163
12,AACAAGCA,0.253
13,CGGTTGGA,-0.246
14,CCGCTTCG,-0.234
15,CAACGCGA,0.157
16,GTTGGCCA,-0.225
17,GAACGAGA,-0.036
18,ACCGCGCA,-0.0344
19,ACGGACGC,-0.134
20,AAACGTCA,0.127
21,GGTGGGCA,-0.186
22,CCACTACG,0.0286
23,GAGACAGA,-0.232
24,ATTCGGTC,-0.0526
25,CCACGACA,-0.103

row,Sequence,PBM E-score
1,CAGGGAGG,-0.298
2,ACGCTGGA,-0.199
3,CTGTTATC,-0.00298
4,CGTCAACC,0.0261
5,GATATTTA,0.181
6,TAGTTGCA,-0.00184
7,CGTGCGGC,-0.282
8,CAGAAGCG,-0.121
9,GCGGGTGA,-0.0764
10,GTTTTAAA,0.22
11,GTAATTAC,0.452
12,GTGTCCAA,0.108
13,ACCGTAGC,-0.193
14,GCCGCAGC,-0.17
15,ACCTCATG,0.00085
16,GGAGAATA,0.0952
17,ACGTAAGG,0.151
18,GCCTCGAC,0.115
19,ATACACCA,0.215
20,ACAACCTG,0.211
21,ATAGATAT,0.0323
22,AGTGTCGC,-0.00973
23,AGTGGGAG,-0.193
24,AGCATACT,0.0478
25,ATTTGATA,0.107

row,Sequence,PBM E-score
1,AGATCTAG,-0.152
2,CTCGTACC,-0.129
3,CCATACTA,0.121
4,TCTACGAA,0.0456
5,TCTGCAGA,-0.12
6,ATTTTCCC,-0.0382
7,CGACTAAG,-0.108
8,GGCACACC,-0.343
9,GTATTTAA,0.342
10,CAGGATGC,-0.19
11,AAGCATGC,0.117
12,AGCTGTGC,-0.0346
13,GAAAAGAA,0.00784
14,AGGGCCGA,-0.239
15,ACGCGGCA,0.0388
16,CGGTAGCA,-0.0327
17,AAGTAAAT,0.341
18,ATGGACAC,0.14
19,CTGCTTTC,-0.191
20,GAGGATAA,-0.0761
21,ACTGAACA,0.192
22,AGGGCTGA,-0.0502
